Data on 48 compounds can be found in PubChem BioAssay AID1963576 (National Center for Advancing Translational Sciences (NCATS), 2024).

The campaign covered roughly 46,000 compounds. About 60 (0.1%) were called active. About 3% were inconclusive and are not listed. Calls come from the whole dose curve; as a rule, active = well fitted inhibition curve with a large enough effect; inconclusive = small, poorly fitted or top-dose-only effect; inactive = no such curve, though single readings can be large or run the other way. This is one part of the list.

This assay in a line: Primary qHTS assay for Inhibitors of ovarian cancer metastasis using an organotypic tumor microenvironment (TME) model.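 For activity change, negative = inhibition: plate controls were DMSO wells for no effect and tomatine positive control wells for full effect.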 Note: nearly all actives have a fitted effect of over 65% in size. As to conditions: SKOV3ip1-GFP adhesion/invasion on 3D omental model, fluorescence; series mostly up to 45.8 µM; activity change, negative = inhibition: at the top concentration. An outline of the steps:
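qHTS, 4-pt dose (0.36-46 umol/L); SKOV3ip1-GFP, 1,200 cells/well, no FBS; primary omental fibroblast/mesothelial co-culture 48 h pre-grown; 2 h RT + 16 h 37 C; PBS wash, 4% PFA; GFP count 488/509 nm.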
In general terms: qHTS replaces the single test concentration by a dilution series.
As to `CCCn1c2ccccc2c2cnn(CC(=O)N(CCCOC(C)C)Cc3ccco3)c(=O)c21`, the “activity change, negative = inhibition” value was inactive: 0.821%. In the case of `Cc1ccc(-n2c(=O)c3c(C)c(C)sc3n(CC(=O)c3ccc(Cl)cc3)c2=O)cc1C`, the compound was called inactive.

Take `COc1ccc(N2CCN(C(CNS(=O)(=O)c3c(C)cc(C)cc3C)c3ccco3)CC2)cc1` (stereo not drawn): the “activity change, negative = inhibition” value was inactive: -13.2%.

As to `O=C(Cn1c(=O)n(Cc2ccc(F)cc2)c(=O)c2sc3ccccc3c21)NCc1ccccc1Cl`, the “activity change, negative = inhibition” value was inactive: 1.06%. Still for that read-out and setting: with `N#Cc1c(C(F)(F)F)cc(-c2cccs2)nc1SCC(=O)Nc1ccc(Cl)cc1` the figure was inactive: 3.64%. For the compound `Cc1ccn2c(Nc3ccc4c(c3)OCO4)c(-c3ccco3)nc2c1`, the “activity change, negative = inhibition” value was inactive: -7.76%. For `COc1ccc(C2=NN(CC(=O)NCc3ccccc3Cl)C(=O)CC2)cc1`, the compound was classed as inactive. On to `CCOc1ccc(C(=O)Nc2ccc(-c3nc4cc(C(C)C)ccc4o3)cc2)cc1Cl`, for which the “activity change, negative = inhibition” value was inactive: 2.19%.

On to `CCc1cccc(NC(=O)c2nc(-c3ccncc3)no2)c1`, for which the “activity change, negative = inhibition” value was inactive: 7.11%.

On to `COc1cccc(CNC(=O)N2CCC(CN3CCC(C)CC3)CC2)c1`, for which the “activity change, negative = inhibition” value was inactive: 0.98%. With `Fc1cccc(NCc2cccn2-c2nnc(N3CCOCC3)s2)c1`, the call was inactive. With `Cc1ccc(CCNC(=O)c2c(C)oc3ncnc(N4CCOCC4)c23)cc1`, the compound was called inactive. For `CCc1cccc(C)c1NC(=O)CN1C(=O)c2c(c3ccccc3n2C)C1c1ccc(OC)cc1` (stereo not drawn), the “activity change, negative = inhibition” value was inactive: -1.73%. Turning to `Clc1ccc(CNc2nc3ccccc3c3nc(-c4cccnc4)nn23)cc1`, the “activity change, negative = inhibition” value was inactive: 5.08%. The same measure, in the same setting: the same measure for `CCn1ccc2cc(S(=O)(=O)N3CCC(C(=O)NCCc4ccc(SC)cc4)CC3)ccc21`: inactive: 1.32%. Take `COCCc1nn2c(=O)cc(COC(=O)c3cccs3)nc2s1`: the call was inactive. Turning to `Cn1nnc2c(N3CCCCC3)ncnc21`, the “activity change, negative = inhibition” value is inactive: -1.38%.

`CCOc1ccccc1NC(=O)CN(CCc1ccccc1)S(=O)(=O)c1ccc(C)cc1`: the call was inactive.

Take `Cc1ccc(CN(C(=O)COc2ccc(C(C)(C)C)cc2)C2CCS(=O)(=O)C2)o1` (stereo not drawn): the “activity change, negative = inhibition” value was inactive: -18.9%. Regarding `COc1ccc(-c2c3c(nc4sc(C(=O)Nc5ccc(Cl)cc5)c(N)c24)CC(C)(C)CC3=O)cc1`, the compound was classed as inactive.

For `COc1cc2cc(CNc3ccc(C)cc3)c(=O)n(CC(=O)Nc3ccc(C(C)C)cc3)c2cc1OC`, the “activity change, negative = inhibition” value was inactive: 6.84%. For `CN(C)c1ccc(CNC(=O)CCC(=O)N2Cc3ccccc3Oc3ncccc32)cc1`, the “activity change, negative = inhibition” value was inactive: -0.988%. On to `COc1ccccc1NC(=O)c1ccccc1NC(=O)c1ccccc1`, for which the “activity change, negative = inhibition” value was inactive: -10.8%. Regarding `COc1ccc(NC(=O)CSc2nc(-c3ccc(OC)cc3)[nH]c2-c2ccc(F)cc2)cc1`, the “activity change, negative = inhibition” value is inactive: -9.89%. On to `CCc1ccccc1NC(=O)C(NS(=O)(=O)c1ccc2c(c1)CCC(=O)N2)c1ccccc1` (stereo not drawn), for which the compound was called inactive. As to `COCCCNC(=O)Nc1cc(C(=O)NCc2ccc(OC)cc2)ccc1N1CCCC1`, the “activity change, negative = inhibition” value is inactive: -13.1%. In the case of `COc1ccc(-c2nc(CCNC(=O)c3cccs3)cs2)cc1OC`, the outcome was inactive.

Regarding `COc1cccc(CCNC(=O)c2c(O)nc3cc(C)ccn3c2=O)c1`, the “activity change, negative = inhibition” value is inactive: 67.9%.

Take `CCCCN(C)C(=O)CN1C(=O)CCn2nc(-c3cn(C)c4ccccc34)cc21`: the “activity change, negative = inhibition” value was inactive: -9.03%. Consider `O=C(O)Cn1nc(N2CCN(c3ccc(F)cc3)CC2)ccc1=O`, for which the call was inactive. Regarding `CC1=C(C(N)=O)C(c2cccc(F)c2)n2nc(SCc3ccccc3)nc2N1` (stereo not drawn), the “activity change, negative = inhibition” value is inactive: -6.53%. `COC(=O)c1ccccc1NC(=O)c1ccc2c(c1)CCN2S(=O)(=O)c1ccc(C)cc1`: the “activity change, negative = inhibition” value is inactive: 4.46%. The same measure, in the same setting: the same measure for `O=c1cc(-c2ccccc2)n2c(SCc3ccc([N+](=O)[O-])cc3)nnc2[nH]1`: inactive: -0.809%; for `O=C(CCCn1c(=O)c2sccc2n(Cc2ccc(F)cc2Cl)c1=O)NCc1ccc2c(c1)OCO2`: inactive: -9.52%. In the case of `CCCCc1ccc(C(=O)Nc2ccc3nc(N(CC)CC)cc(C)c3c2)cc1`, the result was inactive. As for `COc1ccc2cc(CNc3ccc(C)cc3)c(=O)n(CC(=O)Nc3ccc(OC)c(Cl)c3)c2c1`, the “activity change, negative = inhibition” value is inactive: 42.9%.

For the compound `CCc1ccc(C(=O)c2cnc3ccc(C)cc3c2S(=O)(=O)c2ccc(OC)cc2)cc1`, the “activity change, negative = inhibition” value is inactive: -8.85%. As for `COc1cc(OC)c(NC(=O)C2=C(C)C(=O)OC23CCCCC3)cc1Cl`, the outcome was inactive. As for `COc1ccccc1CNC(=O)c1cc(Sc2cccc(Cl)c2)nc2ccccc12`, the “activity change, negative = inhibition” value is inactive: -12.5%. Turning to `OCc1cnc(SCc2cccc(F)c2)n1Cc1ccc(F)cc1`, the call was inactive.

As for `O=C(Nc1cccc(Cl)c1)c1ccc2nc(Cc3ccccc3)oc2c1`, the “activity change, negative = inhibition” value was inactive: -0.265%. Still for that read-out and setting: with `Cc1ccccc1Nc1ncnc2c1c(-c1ccccc1)cn2-c1ccc(F)cc1` the figure was inactive: 2.72%. On the same count and under the same terms, the same measure for `O=C(CCc1nc2cccnc2n1Cc1ccccc1)NCc1cccc(Cl)c1`: inactive: -3.49%. Consider `Cc1ccc2c(c1)N(C(=O)N1CCC(C(=O)NCCC3=CCCCC3)CC1)CC(C)O2` (stereo not drawn), for which the result was inactive. Regarding `Cc1c(C(=O)N2CCCC2)oc2c1-c1nn(CC(=O)NCc3cccc(F)c3)cc1CC2`, the “activity change, negative = inhibition” value was inactive: -0.543%. For `CCNC(=O)c1cnc2sc(N3CCC(C)CC3)nn2c1=O`, the result was inactive. Same read-out and setting: with `Cc1cccc(N2C(=O)CS(=O)(=O)C23C(=O)N(C)c2ccccc23)c1` (stereo not drawn) the entry was “inactive”. On the same count and under the same terms, with `CN1c2ccc(Cl)cc2-c2nc(SCC(=O)Nc3cc(F)ccc3F)ncc2S1(=O)=O` the entry was “inactive”.
